Data taken from the supplement of paper PMC4166925.
± gives the standard deviation of the averaged measurements. Whole data set: some 33,000 sequences, median “E-score (dimensionless, -0.5 to 0.5)” near -0.046, cut for the highest 2% near 0.36. The list shows a part of the results.

Tested on: T1, SpTbr T-box DNA-binding domain (GST fusion)
T1 sequence: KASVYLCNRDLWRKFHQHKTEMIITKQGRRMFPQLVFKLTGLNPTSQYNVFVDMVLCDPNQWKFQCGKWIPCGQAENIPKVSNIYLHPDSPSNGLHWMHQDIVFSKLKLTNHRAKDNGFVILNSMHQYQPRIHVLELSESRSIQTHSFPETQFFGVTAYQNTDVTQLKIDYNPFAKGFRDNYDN
Experiment: PBM E-score of 8-mer (E-score (dimensionless, -0.5 to 0.5)); Tbr is Tbrain of the sea star Patiria miniata (Pm) or the sea urchin Strongylocentrotus purpuratus (Sp); higher = stronger binding preference; most listed sequences are background and not binding sites
Details: the construct has about 5 more residues each side
Method in brief: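 Using the Universal PBM Analysis Suite, every ungapped 8-mer received an enrichment E-score averaged over duplicate arrays. Probe intensities came from double-stranded Universal Agilent oligonucleotide arrays incubated with 200 nM GST-fused Tbr T-box DNA-binding domain in PBS (pH 7.5). That protein was expressed in BL21 E. coli at 20 °C and purified by glutathione affinity chromatography.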

Sequence	PBM E-score of 8-mer
CCCCGGCA	-0.143 ± 0.094
CGAGATAA	-0.0943 ± 0.053
CGCCATCA	0.187 ± 0.006
GGGGTGTA	0.167 ± 0.062
CGGGTTAA	-0.0722 ± 0.056
AGCACCTA	0.409 ± 0.0069
CATGACGG	-0.0336 ± 0.039
ACTGTATC	-0.235 ± 0.079
AACGCACC	0.1 ± 0.027
AAAAGGGG	-0.134 ± 0.14
GGAAATAA	0.0299 ± 0.043
ATCTTCGC	0.198 ± 0.0039
ATACAGTC	-0.183 ± 0.033
ATGGAATG	-0.205 ± 0.056
CAGGCTAA	-0.256 ± 0.0071
CGAAAACA	0.148 ± 0.0075
GTTACCTA	0.00777 ± 0.06
AGATCCGA	-0.238 ± 0.024
CGAGAGCA	0.0598 ± 0.088
ATTTCCGC	-0.0491 ± 0.047
AATTTCCC	-0.0386 ± 0.024
AGACCGGA	-0.2436 ± 0.00056

Sequence	PBM E-score of 8-mer
ATCCCCTA	-0.2504 ± 0.00086
AACCGGTC	-0.162 ± 0.02
CTTGAAAA	-0.0358 ± 0.00039
ACGCTCAA	0.0388 ± 0.056
CGCGCCCG	0.248 ± 0.054
AGCACAAG	-0.114 ± 0.035
CGCAAATC	0.151 ± 0.01
AAGCCTGT	-0.0871 ± 0.023
CGACTGTC	0.0969 ± 0.0063
CGCCGCAC	0.257 ± 0.0075
CTGCCACA	0.268 ± 0.02
CTCTAAAC	-0.0505 ± 0.076
GCGAGCAA	0.114 ± 0.026
GGATGATA	-0.0893 ± 0.062
AACTCTAA	-0.253 ± 0.003
CTGGCCAG	-0.194 ± 0.017
CGTTGAAA	-0.0127 ± 0.03
ACGAGATG	0.0173 ± 0.074
ATGCGATG	-0.0228 ± 0.0097
GCGTAAAA	0.0954 ± 0.1
GCTCTCTA	-0.071 ± 0.062
TCACCAAA	0.181 ± 0.019

Sequence	PBM E-score of 8-mer
CTTTTAGC	0.105 ± 0.06
CATTAGCC	-0.1746 ± 0.0017
AGCCGACC	-0.135 ± 0.14
CCACTGAA	-0.234 ± 0.086
AGAGGGAA	-0.179 ± 0.028
CCGCAACC	-0.0683 ± 0.12
AATCGTTG	-0.0248 ± 0.028
CGGCAGAG	-0.00848 ± 0.0038
AAGTCATG	0.00265 ± 0.027
CACTGAGA	-0.123 ± 0.033
AAATGAGA	-0.237 ± 0.04
ACACATTC	0.38 ± 0.022
AAATAGGT	0.0743 ± 0.0022
GCGGACGA	0.0697 ± 0.076
ACCTGAAG	-0.0399 ± 0.12
AGCGCGTA	0.206 ± 0.027
AGTAAACT	-0.139 ± 0.028
ATCCCGAA	-0.0831 ± 0.035
TAAATTGA	-0.00251 ± 0.079
AATGTTCT	-0.298 ± 0.053
AGAGCATG	-0.1412 ± 0.0013
TGCATACA	-0.187 ± 0.0086

Sequence	PBM E-score of 8-mer
CGGTACTA	-0.195 ± 0.031
GTAGTCTA	-0.116 ± 0.06
CTACTAAG	-0.226 ± 0.012
GTCGATCA	0.0683 ± 0.028
GCCCGGTA	-0.239 ± 0.12
GGTTTCAA	-0.0512 ± 0.061
ACTTTCTC	0.0792 ± 0.07
CGTAAATA	-0.162 ± 0.0047
ATTTTCCG	-0.0713 ± 0.035
ATTCGTTA	0.0736 ± 0.051
AATCTTGA	-0.148 ± 0.018
CGGACTGC	0.0817 ± 0.0017
AATGCATG	-0.0811 ± 0.014
ATTGAGCG	0.101 ± 0.024
GCTGCCCC	-0.16 ± 0.027
AGGCATGG	-0.326 ± 0.024
ACCCATAA	-0.00948 ± 0.027
CAGTTAAC	0.0757 ± 0.03
GCCCCCTA	-0.206 ± 0.05
AGATCGAG	-0.104 ± 0.058
